Assay results reported in article PMC4336329 (PLoS ONE, 2015).
Among all 310,000 compounds or so, about 2,200 (0.71%) showed an effect of 50% or more. The effect is printed as a negative number. The list shows a part of the results.

The molecules below were run against human ether-à-go-go-related gene (hERG) potassium channel (human, UniProt Q12809) (assay: primary screen, population patch clamp on CHO cells stably expressing hERG).
Sequence of human ether-à-go-go-related gene (hERG) potassium channel (Q12809 whole entry, looked up): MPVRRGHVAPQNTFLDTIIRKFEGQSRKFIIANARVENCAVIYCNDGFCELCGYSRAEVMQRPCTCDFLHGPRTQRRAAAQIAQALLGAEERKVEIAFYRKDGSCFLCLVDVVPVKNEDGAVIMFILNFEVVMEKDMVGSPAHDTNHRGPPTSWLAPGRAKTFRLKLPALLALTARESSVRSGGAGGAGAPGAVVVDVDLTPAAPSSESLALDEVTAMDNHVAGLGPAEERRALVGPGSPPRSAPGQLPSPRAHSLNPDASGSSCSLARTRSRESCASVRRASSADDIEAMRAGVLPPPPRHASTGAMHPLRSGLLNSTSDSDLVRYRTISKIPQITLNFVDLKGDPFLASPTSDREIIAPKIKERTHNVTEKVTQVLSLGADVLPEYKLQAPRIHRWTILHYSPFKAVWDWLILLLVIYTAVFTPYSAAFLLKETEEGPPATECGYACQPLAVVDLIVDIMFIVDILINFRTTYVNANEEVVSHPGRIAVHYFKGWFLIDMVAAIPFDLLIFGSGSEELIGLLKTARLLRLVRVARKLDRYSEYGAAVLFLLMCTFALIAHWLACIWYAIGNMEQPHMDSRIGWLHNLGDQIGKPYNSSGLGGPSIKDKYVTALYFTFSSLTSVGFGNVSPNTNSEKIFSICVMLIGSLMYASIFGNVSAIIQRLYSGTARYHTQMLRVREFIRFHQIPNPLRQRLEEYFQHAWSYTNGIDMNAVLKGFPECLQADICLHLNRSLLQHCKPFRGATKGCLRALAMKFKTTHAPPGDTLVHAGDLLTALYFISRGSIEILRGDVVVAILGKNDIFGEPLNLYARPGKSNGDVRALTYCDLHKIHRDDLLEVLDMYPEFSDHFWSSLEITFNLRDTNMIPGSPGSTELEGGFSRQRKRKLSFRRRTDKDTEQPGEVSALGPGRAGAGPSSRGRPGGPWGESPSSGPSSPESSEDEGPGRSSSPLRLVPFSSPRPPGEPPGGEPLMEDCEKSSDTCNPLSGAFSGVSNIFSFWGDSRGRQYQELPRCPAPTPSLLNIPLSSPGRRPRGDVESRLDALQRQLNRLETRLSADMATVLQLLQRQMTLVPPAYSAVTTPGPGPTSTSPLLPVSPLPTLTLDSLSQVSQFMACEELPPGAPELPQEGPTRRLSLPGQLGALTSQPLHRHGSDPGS
`O=C1CCCN1CN(C(=O)c1ccccc1)c1ccccc1` was tested, and the “hERG current change (%, negative = inhibition) at 1uM” value was -16.4%. In the case of `NNC(=O)c1ccc(CSc2nc3ccccc3s2)cc1`, the “hERG current change (%, negative = inhibition) at 1uM” value is reported as 27.1%. With `COc1ccc([N+](=O)[O-])cc1NC(=O)c1ccc(Br)s1` the “hERG current change (%, negative = inhibition) at 1uM” value was 0.25%. With `Cc1ccc(CC(=O)Nc2nc3c(s2)CCCC3)cc1` the “hERG current change (%, negative = inhibition) at 1uM” value was 13.5%. In the case of `O=C(O)c1ccc(/C=N/NC(=O)c2cc(-c3ccc4c5c(cccc35)CC4)n[nH]2)cc1`, the “hERG current change (%, negative = inhibition) at 1uM” value is reported as 11.6%. `O=C(O)CCc1ccc(-c2ccc(Br)cc2)n1CC(=O)O` was tested, and the “hERG current change (%, negative = inhibition) at 1uM” value was 4.02%. With `Cc1ccc(C(=O)OCC(=O)NN2C(=O)NC3(CCC(C)CC3)C2=O)cc1` (stereo not drawn) the “hERG current change (%, negative = inhibition) at 1uM” value was 8.93%. For `CCC(=O)N1CCc2cc(Br)cc(S(=O)(=O)N3CCCC(C(=O)O)C3)c21` (stereo not drawn), the “hERG current change (%, negative = inhibition) at 1uM” value was 2.46%. With `CC(=O)Nc1ccc(S(=O)(=O)NNC(=O)c2ccc(S(=O)(=O)N3CCCCC3)cc2)cc1` the “hERG current change (%, negative = inhibition) at 1uM” value was 4.57%. `O=S(=O)(Cc1ccccc1Cl)Nc1ccccn1` was tested, and the “hERG current change (%, negative = inhibition) at 1uM” value was 4.37%. In the case of `Cc1ccccc1NC1(C#N)CCCCC1`, the “hERG current change (%, negative = inhibition) at 1uM” value is reported as 5.11%. With `CCOC(=O)c1c(NC(=O)COc2cccc3c2CCN(Cc2ccc(F)cc2)C3=O)sc2c1CCC2` the “hERG current change (%, negative = inhibition) at 1uM” value was 10.2%. In the case of `COc1ccc(-[n+]2c(-c3ccccc3)cc(-c3ccccc3)cc2-c2ccccc2)cc1.[O-][Cl+3]([O-])([O-])[O-]`, the “hERG current change (%, negative = inhibition) at 1uM” value is reported as -29.2%. With `CCN(C(=O)c1c(OC)cccc1OC)c1nnc(-c2cccnc2)s1` the “hERG current change (%, negative = inhibition) at 1uM” value was 6.46%. `COc1ccc(Cl)c(OC)c1C(=O)NC(=O)Nc1c(F)cc(F)cc1F` was tested, and the “hERG current change (%, negative = inhibition) at 1uM” value was 11.3%. With `Cc1ncc(S(=O)(=O)C(C)(C)C)c(N)n1` the “hERG current change (%, negative = inhibition) at 1uM” value was 11.8%. `CCN(Cc1ccncc1)C(=O)CC1C(=O)NCCN1Cc1ccc(F)c(F)c1` (stereo not drawn) was tested, and the “hERG current change (%, negative = inhibition) at 1uM” value was 4.94%. With `CC(=O)c1ccc(N2CCN(C(=O)Cc3n[nH]c(=O)c4ccccc34)CC2)cc1` the “hERG current change (%, negative = inhibition) at 1uM” value was 6.9%. `COc1ccc2c(C(=O)c3ccc(C)cc3)n(Cc3ccc(C(N)=O)cc3)[n+]([O-])c2c1` was tested, and the “hERG current change (%, negative = inhibition) at 1uM” value was 5.95%. In the case of `COc1ccc(N2CCN(C(=O)c3cc4c(s3)-c3ccccc3S(=O)(=O)C4)CC2)cc1`, the “hERG current change (%, negative = inhibition) at 1uM” value is reported as 6.04%. With `O=C(NNc1ccc([N+](=O)[O-])cc1[N+](=O)[O-])C1C2CCCCC21` (stereo not drawn) the “hERG current change (%, negative = inhibition) at 1uM” value was 1.83%. With `CCCCCCCc1nn2c(=O)cc(O)nc2s1` the “hERG current change (%, negative = inhibition) at 1uM” value was 4.86%. In the case of `Cl.NCCc1ccc(O)c(O)c1`, the “hERG current change (%, negative = inhibition) at 1uM” value is reported as 16.6%. With `Cl.OC1(c2cccc(C(F)(F)F)c2)CCNCC1` the “hERG current change (%, negative = inhibition) at 1uM” value was 8.98%. For `O=C(NCc1csc(-c2cccs2)n1)C1CCC1`, the “hERG current change (%, negative = inhibition) at 1uM” value was 5.19%. `COC(=O)CSc1nnc(CNS(=O)(=O)c2ccc(Cl)cc2)n1C` was tested, and the “hERG current change (%, negative = inhibition) at 1uM” value was 13.3%. In the case of `O=C(O)CSc1nnnn1C1CCCCC1`, the “hERG current change (%, negative = inhibition) at 1uM” value is reported as 11.4%. `COc1cccc(CNc2ncnc3cc(OC)c(OC)cc23)c1` was tested, and the “hERG current change (%, negative = inhibition) at 1uM” value was 5.3%. `CCOC(=O)C1CCCN(C(=O)C2CCN(S(=O)(=O)c3c(C)noc3/C=C/c3ccccc3F)CC2)C1` (stereo not drawn) was tested, and the “hERG current change (%, negative = inhibition) at 1uM” value was 19.4%. With `COc1ccc(C2c3[nH]c4ccccc4c3C[C@H]3C(=O)N(c4ccccc4C(=O)N4CCC[C@H]4C(=O)O)C(=O)N23)cc1` (stereo partly drawn) the “hERG current change (%, negative = inhibition) at 1uM” value was 11.1%. `O=C(Nc1cccc(S(=O)(=O)C(F)F)c1)c1ccc(Cl)c(S(=O)(=O)N2CCOCC2)c1` was tested, and the “hERG current change (%, negative = inhibition) at 1uM” value was 2.01%. For `CCOc1ccccc1N1CCN(CC(=O)Nc2ccnn2C2CCCC2)CC1`, the “hERG current change (%, negative = inhibition) at 1uM” value was -14.1%. In the case of `Cc1oc(C(C)(C)C)cc1C(=O)Nc1cccc(/C=C\C(=O)O)c1`, the “hERG current change (%, negative = inhibition) at 1uM” value is reported as 12.2%. In the case of `CCOc1cccc(Nc2cc3n(c(=O)n2)CCc2cc(OC)c(OC)cc2-3)c1`, the “hERG current change (%, negative = inhibition) at 1uM” value is reported as -7.11%. For `O=C(NNC(=O)c1ccc2c(=O)n3c(nc2c1)CCC3)c1ccc(F)cc1`, the “hERG current change (%, negative = inhibition) at 1uM” value was 11.2%. With `O=C1N=C(N2CCOCC2)S/C1=C\c1ccncc1` the “hERG current change (%, negative = inhibition) at 1uM” value was 10.8%. With `C=C(C)c1cccc(C(C)(C)NC(=O)NCC2CCCO2)c1` (stereo not drawn) the “hERG current change (%, negative = inhibition) at 1uM” value was 6.08%. With `CN1CCN(C2CCN(c3cccc(Cl)c3)CC2)CC1CCO` (stereo not drawn) the “hERG current change (%, negative = inhibition) at 1uM” value was 16%. `CSc1ncccc1C(=O)OCC(=O)N(C)C` was tested, and the “hERG current change (%, negative = inhibition) at 1uM” value was 8.49%. For `N#CC1=C(N)OC2=C(C(=O)CCC2)C1CCc1ccccc1` (stereo not drawn), the “hERG current change (%, negative = inhibition) at 1uM” value was 9.32%. With `CCc1ccc(C(=O)COC(=O)c2cncc(Br)c2)cc1` the “hERG current change (%, negative = inhibition) at 1uM” value was 1.47%. In the case of `Cc1ccc(S(=O)(=O)N(C)c2ccc(OC(=O)c3cccs3)cc2)cc1C`, the “hERG current change (%, negative = inhibition) at 1uM” value is reported as 13.5%. `COc1cc(OC)cc(C(=O)NCCc2cnc[nH]2)c1` was tested, and the “hERG current change (%, negative = inhibition) at 1uM” value was 17.8%. For `CC(=O)Oc1ccc(Nc2ccccc2)cc1`, the “hERG current change (%, negative = inhibition) at 1uM” value was 17%. With `O=C(NNC(=S)NCC1CCCO1)c1ccc(S(=O)(=O)N2CCOCC2)cc1` (stereo not drawn) the “hERG current change (%, negative = inhibition) at 1uM” value was 11.5%. In the case of `COc1ccc(C2=CC(c3sccc3C)n3nnnc3N2)cc1` (stereo not drawn), the “hERG current change (%, negative = inhibition) at 1uM” value is reported as 5.33%. For `CC(CCc1ccco1)NC(=O)c1cccc2c1C(=O)N(C1CCCCC1)C2` (stereo not drawn), the “hERG current change (%, negative = inhibition) at 1uM” value was 7.73%. `O=C(NC1CCCC1)c1cccc(S(=O)(=O)N2CCCCC2)c1` was tested, and the “hERG current change (%, negative = inhibition) at 1uM” value was 1.28%. For `COc1ccc(CNc2ccc(N3CCOCC3)cc2)cc1`, the “hERG current change (%, negative = inhibition) at 1uM” value was 18.9%. For `Cc1ccc(C(=O)/C=C/C(=O)O)cc1`, the “hERG current change (%, negative = inhibition) at 1uM” value was 3.51%. `CCCCOCCCN1CC(=O)N2C(C)c3[nH]c4ccccc4c3C[C@H]2C1=O` (stereo partly drawn) was tested, and the “hERG current change (%, negative = inhibition) at 1uM” value was 11.1%. `Cc1oc2ccc(OCc3cccc(Cl)c3)cc2c1C(=O)O` was tested, and the “hERG current change (%, negative = inhibition) at 1uM” value was 0.298%. With `COCCN(CC(=O)NCc1ccc(OC)cc1)C(=O)CCC(=O)Nc1nccs1` the “hERG current change (%, negative = inhibition) at 1uM” value was 11.7%. With `CCOC(=O)c1c(CS(=O)(=O)c2ccccc2)n(C)c2cc(Br)c(O)c(CN(C)C)c12` the “hERG current change (%, negative = inhibition) at 1uM” value was -10.2%. In the case of `Cc1cc2nc(-c3ccc[nH]c3=O)[nH]c2cc1C`, the “hERG current change (%, negative = inhibition) at 1uM” value is reported as 13.6%. In the case of `COCCCNC(=O)COc1ccc(S(=O)(=O)Nc2ccccc2)cc1`, the “hERG current change (%, negative = inhibition) at 1uM” value is reported as -4.03%. `COc1cc2c(OC(C)=O)c3c(c(-c4ccc5c(c4)OCO5)c2cc1OC)C(=O)OC3` was tested, and the “hERG current change (%, negative = inhibition) at 1uM” value was 12.9%.
